Laboratory results from the BET-seq Pho4 binding data (Le et al. 2018).
Some of the results follow. Values were computed here from the reads of four pooled replicates and scatter widely.

target: T1, Pho4 (S. cerevisiae) (UniProt P07270); assay: relative binding free energy (BET-seq); higher = weaker binding; conditions: reference: library average
T1 sequence: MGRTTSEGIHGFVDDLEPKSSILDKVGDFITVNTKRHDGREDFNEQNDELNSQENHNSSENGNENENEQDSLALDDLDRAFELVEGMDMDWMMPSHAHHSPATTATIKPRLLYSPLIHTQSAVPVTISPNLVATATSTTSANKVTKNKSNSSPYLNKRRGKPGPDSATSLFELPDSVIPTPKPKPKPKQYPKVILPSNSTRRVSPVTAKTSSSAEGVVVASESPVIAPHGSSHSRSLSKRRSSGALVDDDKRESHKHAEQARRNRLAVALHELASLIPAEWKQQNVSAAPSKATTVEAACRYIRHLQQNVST

Row | Sequence | relative binding free energy
1 | AGCATCACGTGGTTTT | 0.16 kcal/mol
2 | AGTTTCACGTGAGTAT | 0.43 kcal/mol
3 | TAATTCACGTGGTGGG | 0.26 kcal/mol
4 | CGTTGCACGTGAGGCG | 0.19 kcal/mol
5 | GATATCACGTGTCGTG | 0.14 kcal/mol
6 | GGGACCACGTGAAGTG | 0.27 kcal/mol
7 | GGAGGCACGTGTGTAC | -0.11 kcal/mol
8 | GTGCGCACGTGAGGTT | 0.36 kcal/mol
9 | AAGGTCACGTGACGTT | 0.18 kcal/mol
10 | GGAAACACGTGGGGGA | -0.11 kcal/mol
11 | TCTGTCACGTGGATTG | 0.07 kcal/mol
12 | AAATGCACGTGCTAGG | 0 kcal/mol
13 | GGTTGCACGTGTAAGG | 0.16 kcal/mol
14 | AACGTCACGTGGTTAG | 0.02 kcal/mol
15 | TAGTCCACGTGGTTAT | -0.04 kcal/mol
16 | TAAATCACGTGCTTTG | 0.27 kcal/mol
17 | TAGTGCACGTGTGCGT | -0.18 kcal/mol
18 | GATTGCACGTGGCTTG | -0.17 kcal/mol
19 | CTTGACACGTGTAGGC | 0.25 kcal/mol
20 | TTGGACACGTGAGATG | 0.16 kcal/mol
21 | GTGGGCACGTGTGAGA | 0.03 kcal/mol
22 | GTGGACACGTGTGATA | 0.04 kcal/mol
23 | GGAGGCACGTGTGTTA | -0.05 kcal/mol

Row | Sequence | relative binding free energy
24 | ATTGGCACGTGCGATT | -0.05 kcal/mol
25 | TGTATCACGTGCTGTA | 0.02 kcal/mol
26 | TGTAGCACGTGTTTAG | 0.07 kcal/mol
27 | AGATTCACGTGTGGCA | 0.31 kcal/mol
28 | GGCCGCACGTGGGCGG | -0.12 kcal/mol
29 | TTAGTCACGTGATTGA | 0.26 kcal/mol
30 | GGTTCCACGTGTGATT | 0.17 kcal/mol
31 | AGTATCACGTGGGGCT | -0.05 kcal/mol
32 | GGAGTCACGTGGTAGA | 0.15 kcal/mol
33 | GTATTCACGTGGGCTT | 0.12 kcal/mol
34 | GTAGGCACGTGCTCGG | -0.11 kcal/mol
35 | GTAGTCACGTGCTTAG | 0.03 kcal/mol
36 | TTTTGCACGTGTGCTT | -0.04 kcal/mol
37 | AAGTGCACGTGTTTGC | 0.02 kcal/mol
38 | GTTTTCACGTGTATCA | 0.32 kcal/mol
39 | ATTGTCACGTGACTGT | 0.17 kcal/mol
40 | ACGGGCACGTGTCTGT | -0.02 kcal/mol
41 | CATAGCACGTGTTGTT | -0.18 kcal/mol
42 | ATAGTCACGTGGTAAG | 0.1 kcal/mol
43 | AATTGCACGTGGGCGG | -0.05 kcal/mol
44 | TGTGACACGTGGTGGG | 0.03 kcal/mol
45 | CTTAGCACGTGTTGAG | -0.17 kcal/mol
46 | CATGGCACGTGTATGG | -0.07 kcal/mol

Row | Sequence | relative binding free energy
47 | GGGTTCACGTGTGCTG | 0.27 kcal/mol
48 | ATCATCACGTGGGTTA | -0.05 kcal/mol
49 | AAGAACACGTGTGGTT | -0.03 kcal/mol
50 | GTAGGCACGTGAGGAT | 0.19 kcal/mol
51 | AGGAGCACGTGGGAAA | -0.13 kcal/mol
52 | GTCGGCACGTGAGTGA | 0.21 kcal/mol
53 | TTAAGCACGTGGTTAG | -0.14 kcal/mol
54 | TTGGTCACGTGAGTAG | 0.26 kcal/mol
55 | ATTTCCACGTGTTAGG | 0.14 kcal/mol
56 | TTTTGCACGTGTGAAC | 0.17 kcal/mol
57 | TTGTTCACGTGAGATG | 0.24 kcal/mol
58 | GGCTTCACGTGGGCTG | 0.25 kcal/mol
59 | GGGGTCACGTGTGTGC | 0.21 kcal/mol
60 | TGTGACACGTGAGATT | 0.28 kcal/mol
61 | TCATGCACGTGTTTAG | -0.07 kcal/mol
62 | TTAGTCACGTGTGTAC | 0.16 kcal/mol
63 | GATTTCACGTGTGAGG | 0.32 kcal/mol
64 | GTTGGCACGTGCGAAT | -0.09 kcal/mol
65 | CGGGGCACGTGAGGTG | 0.18 kcal/mol
66 | CAGTGCACGTGGAGAG | -0.1 kcal/mol
67 | TTATGCACGTGAATAG | 0.14 kcal/mol
68 | GTGAGCACGTGGTAGA | -0.09 kcal/mol
69 | TAGTGCACGTGATTAA | 0.18 kcal/mol

Row | Sequence | relative binding free energy
70 | GATGTCACGTGTGTGA | 0.12 kcal/mol
71 | TTTATCACGTGGTCAT | 0.06 kcal/mol
72 | CTGTGCACGTGGTTTA | -0.07 kcal/mol
73 | AGTGACACGTGGGCGA | -0.11 kcal/mol
74 | TCTGTCACGTGTTTTT | 0.04 kcal/mol
75 | GAGGCCACGTGTTGAG | 0.07 kcal/mol
76 | GTGCGCACGTGGCGGC | -0.17 kcal/mol
77 | TTCGGCACGTGAATTT | 0.19 kcal/mol
78 | TATGACACGTGATATT | 0.2 kcal/mol
79 | AATGACACGTGGGTAT | -0.04 kcal/mol
80 | TAGGACACGTGGCGCG | -0.03 kcal/mol
81 | GAGTTCACGTGAGGGA | 0.37 kcal/mol
82 | TATAGCACGTGGTGGC | -0.13 kcal/mol
83 | GGTATCACGTGGGATG | 0.26 kcal/mol
84 | GGTGTCACGTGTCCTG | 0.09 kcal/mol
85 | AGTATCACGTGTGTAT | 0.26 kcal/mol
86 | AATGTCACGTGGGGTG | -0.09 kcal/mol
87 | GGTTGCACGTGAAAAG | 0.39 kcal/mol
88 | TGTGCCACGTGTTTTC | 0.04 kcal/mol
89 | TTACACACGTGGTTTG | 0 kcal/mol
90 | TGTTGCACGTGTCAAG | 0.02 kcal/mol
91 | TGGAGCACGTGTGGAT | -0.05 kcal/mol
92 | TATGTCACGTGTTTAC | 0.21 kcal/mol

Row | Sequence | relative binding free energy
93 | GATTACACGTGTGAGT | 0.2 kcal/mol
94 | GCAGTCACGTGGGGCT | 0.02 kcal/mol
95 | GAGAACACGTGGGTGG | -0.14 kcal/mol
96 | AGTTTCACGTGGCTGG | 0.17 kcal/mol
97 | CAAGGCACGTGTAGTG | -0.07 kcal/mol
98 | AGAGACACGTGGAGTG | -0.07 kcal/mol
99 | TTGGGCACGTGTCTAT | -0.11 kcal/mol
100 | GACGTCACGTGTGTTA | 0.16 kcal/mol
101 | TATGGCACGTGGACTT | -0.17 kcal/mol
102 | GGATACACGTGAGTAT | 0.34 kcal/mol
103 | TACGGCACGTGGGAGG | -0.21 kcal/mol
104 | CTGTTCACGTGGGGAG | 0.21 kcal/mol
105 | GGGGTCACGTGTTCGT | 0.11 kcal/mol
106 | TTCGTCACGTGAGGAG | 0.16 kcal/mol
107 | GGGTTCACGTGTTCAA | 0.31 kcal/mol
108 | TTTGTCACGTGCGCTG | -0.02 kcal/mol
109 | TTTTTCACGTGATGCC | 0.38 kcal/mol
110 | GGTTACACGTGAGTTT | 0.35 kcal/mol
111 | GTTTGCACGTGCAAGA | 0.16 kcal/mol
112 | ATAAACACGTGTTTGG | -0.05 kcal/mol
113 | TTGTACACGTGAGCTT | 0.14 kcal/mol
114 | TTAAGCACGTGCGGAG | -0.08 kcal/mol
115 | GTTGTCACGTGTGGTA | 0.25 kcal/mol
